Experimental data from the supplement of paper PMC11417369.
± gives the standard deviation of the averaged measurements. Some of the results follow.

Test system: PfAP2-I AP2 domain 3 (GST-tagged)
Experiment: gcPBM binding intensity (ln(normalized median fluorescence intensity)); higher = stronger DNA binding
Method in brief: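 Using an Agilent 4 × 180k array, primer-extended double-stranded 36-bp intergenic genomic probes and negative controls were exposed for 1 h to GST-fused P. falciparum DNA-binding domains expressed in E. coli. Binding was carried out in 1× PBS with 1% milk, 0.2 mg/ml BSA, 0.5% salmon testes DNA and 0.03% Triton X-100, and protein was detected with Alexa488 anti-GST antibody and a 488 nm scan. Binding intensity is the highest Masliner-normalised natural-log median intensity across replicate spots of either probe orientation.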

Row | Sequence | gcPBM binding intensity (ln)
1 | ATATATATATGTTTATGTACTTATAATAATATAACT [XGTACX_site4828] | 8.98 ± 0.12
2 | TAATTTAAGAAAAAATGTACACAAATATAATAATAG [XGTACX_site8317] | 8.22 ± 0.54
3 | ATACATATATGTGTGTGTACATAAATGTATATATTT [XGTACX_site6242] | 7.93 ± 0.38
4 | GTATCTTTCAAAATATGTACATATATATATGTGTGT [XGTACX_site3512] | 8.1 ± 0.45
5 | AACTTTATTCCTAATTGTACACATATATATATATAT [XGTACX_site6823] | 9.16 ± 0.53
6 | GCATGGAACCATATATGTACATATATAAATAAATAA [XGTACX_site4996] | 8.04 ± 0.4
7 | ATCCGCTGCCTTTTGGTGCAGAACATAATCATGTAA | 9.915 ± 0.021
8 | TTTAAAATATTAAAATGTACATATATATATATATAT [XGTACX_site6784] | 9.22 ± 1
9 | ACATAAATATATTTTTCACACATCCTTAGTTATGAA [CACACA_site5179] | 7.92 ± 0.59
10 | TATATATATATATATACACACATACATATATATATT [CACACA_site8185] | 9.31 ± 0.56
11 | AATGTATTTAAACTGACACACAAAAAAAATAAAATA [CACACA_site2138] | 7.92 ± 0.54
12 | ATATTGTAAGTAAACACACACACATCTATAGGTATA [CACACA_site6462] | 7.79 ± 0.65
13 | TGTATATTTGATTCATGTACATATTTTATTTTAACT [XGTACX_site5169] | 7.93 ± 0.35
14 | CCTATATAATTATAATGTACTTGTAAAAAATATAAC [XGTACX_site2864] | 7.99 ± 0.4
15 | CAGATTTATTCAAACGCATGCTGTTTTAAAATAAAA [TGCATGCA_site874] | 7.44 ± 0.47
16 | AAATATAAAAAATATACACACATATATAATATATAT [CACACA_site2963] | 7.64 ± 0.49
17 | CTATCAAATAATAGCAAACACACAAAAAATAAAAAA [CACACA_site4147] | 7.75 ± 0.55
18 | AAAAAAAAAAAAAAATCACACATTGGTTAAATATTA [CACACA_site5344] | 8.04 ± 0.65
19 | ATTCATACATGCACACGTACATATTTAAATATAAAA [XGTACX_site8388] | 8.8 ± 0.52
20 | ATTTTTTATGAAAACATAAAAAAATGAGATAACCAT [CACACA_negctrl_site894] | 7.69 ± 0.61
21 | AAAAAAAAAAGACACACACACACACGGACACATACA [CACACA_site7363] | 8.28 ± 0.31
22 | GGTATTTATGGACGCGTGCACACACATATGAACAAA | 9.9 ± 0.14
23 | TTTTGATTTTTTTATTGTACCCATAAACATATAATT [XGTACX_site5202] | 8.03 ± 0.51

Row | Sequence | gcPBM binding intensity (ln)
24 | TACAAACAATTAAACAAACACACATATACATGTATA [CACACA_site2061] | 7.49 ± 0.35
25 | TATTTTTGAAGTTGCACACACAAAAATAAAAAGTAT [CACACA_site418] | 8.615 ± 0.049
26 | ATATTTACTCACGTCTTGCACTGAGCAAGCATTATA | 9.03 ± 0.38
27 | TCATGTTTTTAATATTGTACTCTCATTTTATATATC [XGTACX_site8412] | 7.88 ± 0.45
28 | AGCTATTAATTTATTACATGCAAGATTAAAAGACTA [TGCATGCA_site281] | 7.58 ± 0.56
29 | ATTTTTTTTTTTTGTACATACCACATATACAAAACA [CACACA_negctrl_site1240] | 8.23 ± 0.4
30 | TTTTTTTTTTTCTCCATACACACTTGATAAAACTTT [CACACA_site615] | 8.19 ± 0.79
31 | TAATTGATTCTTCACCGTACTCACACATATATATAT [XGTACX_site6530] | 8.99 ± 0.085
32 | CACACCACCAACAAAAGTACATACATATATATATAT [XGTACX_site5781] | 9.29 ± 0.13
33 | TATATATTGCCCTTCACACACACACCCATATATATA [CACACA_site2493] | 9.185 ± 0.021
34 | ATATATTATAAATGTAGTACCGTTACATAGTCATAG [XGTACX_site390] | 7.92 ± 0.47
35 | ATCAAGCACGAACACACACACACACGCACGCCCACA [CACACA_site6308] | 8.62 ± 0.47
36 | ACTACGAGTCGTAGAGTGCAGTCTGGAGAAAAGTAC [GTGCAC_site9769] | 9.41 ± 0.24
37 | TATTTATACATACGTACACACAAATATTAAAATATA [CACACA_site7004] | 8.22 ± 0.099
38 | ATATATATATATAGGAGTACATGAAATACTTAAAAA [XGTACX_site8851] | 9.2 ± 0.36
39 | AAAAAAGAAATAATCAAATAAATAAAAAAGATGAAT [XGTACX_negctrl_site607] | 7.86 ± 0.39
40 | GTGTGAAGATATAAATGCATTTTTTTATACATTTTC [CACACA_negctrl_site117] | 7.77 ± 0.55
41 | TGTAAGTATTCTTGAGGTACACATATAAATATAGTA [XGTACX_site3207] | 7.71 ± 0.33
42 | AATATTATATAATAAAGTACATATATATTCATATTT [XGTACX_site7204] | 7.64 ± 0.45
43 | TGTGTGGATATATGTATGCACTACCCTTTGGGTCAT [GTGCAC_site9506] | 9.55 ± 1
44 | AAATATTAAATGGAAAACAAATATATATATCTTAAT [XGTACX_negctrl_site383] | 7.47 ± 0.61
45 | ATATATTGAACCTATGCATGTAAAATATATGTAATA [TGCATGCA_site644] | 7.55 ± 0.61
